According to paper PMC4336329 (PLoS ONE, 2015):
The whole screen tested about 310,000 compounds, of which about 2,200 (0.71%) showed an effect of 50% or more. The effect is printed as a negative number. The list shows a part of the results.

Biological target: human ether-à-go-go-related gene (hERG) potassium channel (human, UniProt Q12809)
Test: primary screen, population patch clamp on CHO cells stably expressing hERG

Chain of human ether-à-go-go-related gene (hERG) potassium channel (Q12809 whole entry, looked up): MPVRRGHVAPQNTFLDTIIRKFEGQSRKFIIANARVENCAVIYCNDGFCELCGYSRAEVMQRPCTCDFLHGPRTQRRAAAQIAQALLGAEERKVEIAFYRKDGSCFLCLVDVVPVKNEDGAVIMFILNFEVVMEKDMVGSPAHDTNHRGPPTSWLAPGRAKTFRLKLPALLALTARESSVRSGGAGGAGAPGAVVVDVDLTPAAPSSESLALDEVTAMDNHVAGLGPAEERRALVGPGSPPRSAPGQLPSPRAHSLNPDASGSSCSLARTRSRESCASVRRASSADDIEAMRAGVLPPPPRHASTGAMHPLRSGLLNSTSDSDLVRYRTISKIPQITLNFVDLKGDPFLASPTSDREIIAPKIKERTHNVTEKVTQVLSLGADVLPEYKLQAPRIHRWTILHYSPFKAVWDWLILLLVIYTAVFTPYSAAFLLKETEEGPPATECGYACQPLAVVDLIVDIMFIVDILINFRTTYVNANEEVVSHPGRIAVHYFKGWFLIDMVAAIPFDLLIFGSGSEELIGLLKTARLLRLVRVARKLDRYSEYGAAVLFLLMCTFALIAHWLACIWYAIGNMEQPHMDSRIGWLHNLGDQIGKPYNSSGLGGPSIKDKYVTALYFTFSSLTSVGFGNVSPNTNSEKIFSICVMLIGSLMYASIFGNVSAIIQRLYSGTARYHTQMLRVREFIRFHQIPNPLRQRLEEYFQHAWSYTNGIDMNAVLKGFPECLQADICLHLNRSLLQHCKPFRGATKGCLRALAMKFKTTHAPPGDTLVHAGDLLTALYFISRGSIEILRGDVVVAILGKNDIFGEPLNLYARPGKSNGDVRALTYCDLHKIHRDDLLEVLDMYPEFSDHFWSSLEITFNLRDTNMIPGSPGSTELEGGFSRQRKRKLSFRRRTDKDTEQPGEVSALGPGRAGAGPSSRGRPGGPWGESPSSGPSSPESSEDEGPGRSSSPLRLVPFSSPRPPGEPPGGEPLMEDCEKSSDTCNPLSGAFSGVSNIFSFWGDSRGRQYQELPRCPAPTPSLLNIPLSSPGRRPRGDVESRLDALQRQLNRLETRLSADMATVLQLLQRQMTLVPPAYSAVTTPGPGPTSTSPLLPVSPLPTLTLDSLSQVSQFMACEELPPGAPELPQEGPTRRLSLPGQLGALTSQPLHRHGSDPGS

**Q.** For CC(=O)c1cccc(OCC(=O)N(Cc2ccco2)c2c(N)n(Cc3ccccc3)c(=O)[nH]c2=O)c1, which “hERG current change (%, negative = inhibition) at 1uM” value is on record?
**A.** Its value is 2.85%.

**Q.** COc1cc(OC)cc(C(=O)NNC(=O)C2CSC3(C)CCC(=O)N23)c1 (centres unmarked) was tested. Which “hERG current change (%, negative = inhibition) at 1uM” value did it give?
**A.** The value was 14.3%.

**Q.** CCCCCCC(=O)N/N=C/c1c(O)n(C(C)CC)c(=S)[nH]c1=O (centres unmarked) was tested. Which “hERG current change (%, negative = inhibition) at 1uM” value did it give?
**A.** Its value is 9.66%.

**Q.** How did the “hERG current change (%, negative = inhibition) at 1uM” value turn out when Cc1cc(C)nc(SC2CCCCC2NS(=O)(=O)c2ccc(Cl)cc2)n1 (centres unmarked) was run?
**A.** The value was 9.14%.

**Q.** For O=C(Oc1ccc2c(-c3ccccc3)cc(=O)oc2c1)C1CCCCC1, which “hERG current change (%, negative = inhibition) at 1uM” value is on record?
**A.** The value was 10.3%.

**Q.** Cc1noc(C)c1N=Nc1ccccc1C(=O)O was tested. Which “hERG current change (%, negative = inhibition) at 1uM” value did it give?
**A.** The value was 10.9%.

**Q.** CC[C@H](C)[C@H](NC(=O)[C@H](Cc1ccc(O)cc1)NC(=O)[C@@H](N)C(C)C)C(=O)N[C@@H](Cc1cnc[nH]1)C(=O)N1CCC[C@H]1C(=O)N[C@@H](Cc1ccccc1)C(=O)O was tested. Which “hERG current change (%, negative = inhibition) at 1uM” value did it give?
**A.** Its value is 6.63%.

**Q.** Which “hERG current change (%, negative = inhibition) at 1uM” value does the source give for CCO[C@@H]1OC(C(=O)N2CCOCC2)=C[C@H](C2CCCCC2)[C@H]1CCCO here?
**A.** The value was 15.9%.

**Q.** How did the “hERG current change (%, negative = inhibition) at 1uM” value turn out when CCOC(=O)c1csc(NC(=O)CSc2nnnn2-c2ccc(OC)c(OC)c2)n1 was run?
**A.** The value was 7.09%.

**Q.** CC(=O)c1ccc(N2CCN(C(=O)/C=C/c3ccc(S(=O)(=O)N4CCOCC4)cc3)CC2)cc1 was tested. Which “hERG current change (%, negative = inhibition) at 1uM” value did it give?
**A.** The value was 2.42%.

**Q.** With O=c1[nH]c(=O)n(-c2cc(Br)c(O)c(Br)c2)cc1Br as the compound, how does the “hERG current change (%, negative = inhibition) at 1uM” value read?
**A.** The value was 11.2%.

**Q.** With Cc1ccccc1C(=O)Nc1nnc(-c2ccc(F)cc2)o1 as the compound, how does the “hERG current change (%, negative = inhibition) at 1uM” value read?
**A.** The value was 0.734%.

**Q.** How did the “hERG current change (%, negative = inhibition) at 1uM” value turn out when CSCCC(NS(=O)(=O)c1ccc(C)cc1)C(=O)NCC(C)(C)N1CCOCC1 (centres unmarked) was run?
**A.** The value was 4.69%.

**Q.** Which “hERG current change (%, negative = inhibition) at 1uM” value does the source give for CCc1noc(C)c1C(=O)NNC(=O)COc1cc(C)ccc1C here?
**A.** Its value is -10.1%.

**Q.** Cc1cccc(-c2nnc3sc(-c4ccccc4)nn23)c1 was tested. Which “hERG current change (%, negative = inhibition) at 1uM” value did it give?
**A.** The value was -7.56%.

**Q.** How did the “hERG current change (%, negative = inhibition) at 1uM” value turn out when CC(=O)OCC12COC3c4ccccc4OC(C)(CC1C)C3C2C (centres unmarked) was run?
**A.** Its value is 5.51%.

**Q.** With COc1ccc(Br)cc1S(=O)(=O)N1CCOCC1 as the compound, how does the “hERG current change (%, negative = inhibition) at 1uM” value read?
**A.** Its value is 0.9%.

**Q.** Which “hERG current change (%, negative = inhibition) at 1uM” value does the source give for CCN(CC)C(=O)c1ccc(NC(=O)Cn2nc(C)c3ccccc3c2=O)cc1 here?
**A.** The value was 0.871%.

**Q.** How did the “hERG current change (%, negative = inhibition) at 1uM” value turn out when COc1ccc2c(c1)[nH]c1c(=O)n(Cc3ccccn3)cnc12 was run?
**A.** The value was 5.19%.

**Q.** With Cc1sc2ncnc(N[C@@H](CCC(=O)O)C(=O)O)c2c1C as the compound, how does the “hERG current change (%, negative = inhibition) at 1uM” value read?
**A.** The value was 10.8%.

**Q.** COC(=O)c1sc(NC(=O)c2c(-c3ccccc3)noc2C)nc1C was tested. Which “hERG current change (%, negative = inhibition) at 1uM” value did it give?
**A.** The value was 16.4%.

**Q.** COc1ccc(C)cc1NC(=O)C(CCS(C)(=O)=O)NC(C)=O (centres unmarked) was tested. Which “hERG current change (%, negative = inhibition) at 1uM” value did it give?
**A.** The value was 15.4%.

**Q.** How did the “hERG current change (%, negative = inhibition) at 1uM” value turn out when COc1cc(N)c(Cl)cc1C(=O)OCC(=O)N1CCCCCC1 was run?
**A.** The value was 5.85%.

**Q.** How did the “hERG current change (%, negative = inhibition) at 1uM” value turn out when CNC(=O)NC(=O)CSc1nc2sccc2c(=O)n1-c1ccccc1 was run?
**A.** The value was 13.5%.

**Q.** How did the “hERG current change (%, negative = inhibition) at 1uM” value turn out when CCc1ccccc1OCCOc1ccc(C)cc1OC was run?
**A.** The value was 10.7%.

**Q.** How did the “hERG current change (%, negative = inhibition) at 1uM” value turn out when CCCOc1ccc(CNC(=S)N/N=C/c2ccc([N+](=O)[O-])cc2)cc1 was run?
**A.** The value was 7.65%.

**Q.** Which “hERG current change (%, negative = inhibition) at 1uM” value does the source give for CC(=O)n1cc([C@H]2C=C(C(=O)O)O[C@@H](OCCCCO)C2)c2ccccc21 here?
**A.** The value was 5.32%.

**Q.** Which “hERG current change (%, negative = inhibition) at 1uM” value does the source give for Cc1ccc(S(=O)(=O)NCCc2cc3ccc(C)c(C)c3[nH]c2=O)cc1 here?
**A.** The value was 11.4%.

**Q.** With C/C(=N\NC(=S)Nc1ccc(C(C)C)cc1)c1ccc2c(c1)OCO2 as the compound, how does the “hERG current change (%, negative = inhibition) at 1uM” value read?
**A.** The value was 17.6%.

**Q.** Which “hERG current change (%, negative = inhibition) at 1uM” value does the source give for CC12CCC(=O)N1C(C(=O)NCc1ccc(Cl)cc1Cl)CS2 (centres unmarked) here?
**A.** The value was 10.1%.

**Q.** For Cc1ccc(-n2nc(C)c3c(C)c(CCC(=O)NCCCOC(C)C)c(C)nc32)cc1, which “hERG current change (%, negative = inhibition) at 1uM” value is on record?
**A.** The value was 2.46%.

**Q.** Which “hERG current change (%, negative = inhibition) at 1uM” value does the source give for O=C(CCc1nc2ccccc2c(=O)[nH]1)Nc1cc(C(F)(F)F)ccc1N1CCCC1 here?
**A.** The value was 6.43%.

**Q.** Which “hERG current change (%, negative = inhibition) at 1uM” value does the source give for Cc1cccc(OCCC(=O)NCC(=O)Nc2cccc(C)c2C)c1 here?
**A.** The value was 16.5%.

**Q.** For COC(=O)c1ccc(CSc2nncn2N)cc1, which “hERG current change (%, negative = inhibition) at 1uM” value is on record?
**A.** Its value is 14.6%.

**Q.** How did the “hERG current change (%, negative = inhibition) at 1uM” value turn out when FC(F)(F)c1cc(-c2ccccc2)nc(-n2cncn2)n1 was run?
**A.** Its value is -14.3%.

**Q.** CCC(=O)N1c2ccccc2-c2nnc(SC)nc2OC1c1ccc(OC)c(OC)c1 (centres unmarked) was tested. Which “hERG current change (%, negative = inhibition) at 1uM” value did it give?
**A.** The value was 8.23%.

**Q.** Which “hERG current change (%, negative = inhibition) at 1uM” value does the source give for COc1ccc(CC(=O)N2CCc3ccccc32)cc1 here?
**A.** Its value is 1.15%.

**Q.** With Cc1cccc(C(=O)NCC(=O)OCC(=O)NC2CCCCCCC2)c1 as the compound, how does the “hERG current change (%, negative = inhibition) at 1uM” value read?
**A.** Its value is 16.2%.

**Q.** For COc1ccc(C(=O)NCCCNC(=O)c2ccccn2)cc1, which “hERG current change (%, negative = inhibition) at 1uM” value is on record?
**A.** Its value is 13.2%.

**Q.** How did the “hERG current change (%, negative = inhibition) at 1uM” value turn out when COC(=O)CCn1nc(-c2ccc(Cl)cc2)c2ccccc2c1=O was run?
**A.** The value was 0.35%.

**Q.** For Cc1cc(-c2nc3ccccc3[nH]2)ccc1N, which “hERG current change (%, negative = inhibition) at 1uM” value is on record?
**A.** Its value is 21.2%.

**Q.** For Cc1cc(C)n(-c2ccc(C(=O)OCC(=O)Nc3ccc(S(=O)(=O)N4CCOCC4)cc3)cc2)n1, which “hERG current change (%, negative = inhibition) at 1uM” value is on record?
**A.** The value was 11.9%.

**Q.** O=S(=O)(c1ccccc1)N1CCN=C1SCc1ccc(Cl)c(Cl)c1 was tested. Which “hERG current change (%, negative = inhibition) at 1uM” value did it give?
**A.** Its value is 9.41%.

**Q.** With Cc1cc(-c2ccccc2)nc2oc(C(=O)NN)c(N)c12 as the compound, how does the “hERG current change (%, negative = inhibition) at 1uM” value read?
**A.** Its value is 14.8%.

**Q.** O=C(N/N=C/c1ccc(F)cc1)c1cc[n+]([O-])cc1 was tested. Which “hERG current change (%, negative = inhibition) at 1uM” value did it give?
**A.** Its value is 14.4%.

**Q.** For CS(=O)(=O)N1CCC(C(=O)Nc2cccc(F)c2)CC1, which “hERG current change (%, negative = inhibition) at 1uM” value is on record?
**A.** The value was 16.6%.

**Q.** With O=C(NCc1nnc(SCC(=O)N2CCN(c3ccccc3)CC2)o1)c1ccccc1 as the compound, how does the “hERG current change (%, negative = inhibition) at 1uM” value read?
**A.** Its value is 15.4%.

**Q.** For CCOc1ccc(Cc2noc3c2C(=O)CC(C)(C)C3)cc1OCC, which “hERG current change (%, negative = inhibition) at 1uM” value is on record?
**A.** The value was 7.09%.

**Q.** Which “hERG current change (%, negative = inhibition) at 1uM” value does the source give for CCSc1ncc(Cl)c(C(=O)Nc2ccccc2F)n1 here?
**A.** Its value is 16.9%.

**Q.** Which “hERG current change (%, negative = inhibition) at 1uM” value does the source give for C=CCNS(=O)(=O)c1cc(S(=O)(=O)NCC=C)c(OC)cc1OC here?
**A.** The value was 11.1%.

**Q.** O=C(CN(C(=O)CCC(=O)Nc1ccccn1)C1CCCC1)NCc1ccc(F)cc1 was tested. Which “hERG current change (%, negative = inhibition) at 1uM” value did it give?
**A.** The value was 0.916%.

**Q.** O=C(NCc1cccnc1)C1CC(c2ccc(Cl)c(Cl)c2)=NO1 (centres unmarked) was tested. Which “hERG current change (%, negative = inhibition) at 1uM” value did it give?
**A.** The value was -7.1%.

**Q.** CCC(=O)OCC(=O)Nc1ccc([N+](=O)[O-])cc1OC was tested. Which “hERG current change (%, negative = inhibition) at 1uM” value did it give?
**A.** Its value is 9.97%.

**Q.** How did the “hERG current change (%, negative = inhibition) at 1uM” value turn out when COc1ccc(-c2nn(CC(=O)Nc3ccc(Cl)c(Cl)c3)c(=O)c3ccccc23)cc1 was run?
**A.** Its value is 2.63%.

**Q.** How did the “hERG current change (%, negative = inhibition) at 1uM” value turn out when CN(C)c1ccc(CCN2CCOCC2)cc1 was run?
**A.** The value was 22%.

**Q.** With O=C(O)c1ccc(Oc2ccccc2)o1 as the compound, how does the “hERG current change (%, negative = inhibition) at 1uM” value read?
**A.** The value was 11%.
